Experimental data: publication PMC4242493
The other results are listed elsewhere or left out. The list includes weakly bound sequences.

Biological target: MaxL homodimer (UniProt P61244)
Test: universal protein-binding microarray (PBM)
Settings: PBS-based mixture, 10 nM His-tagged protein dimer, 2% milk, 200 ng/uL BSA, 50 ng/uL salmon testes DNA, 0.02% TX-100; detection with Alexa 488 anti-His …; high values mean tight binding; most listed sequences are background and not binding sites; double strand, one strand shown

Sequence of UniProt P61244 (P61244 whole entry): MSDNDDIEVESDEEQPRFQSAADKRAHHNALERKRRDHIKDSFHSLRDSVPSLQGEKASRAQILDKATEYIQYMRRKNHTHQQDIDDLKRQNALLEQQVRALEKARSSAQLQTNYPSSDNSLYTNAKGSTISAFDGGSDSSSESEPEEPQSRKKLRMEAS

Row | Sequence | binding signal (normalized occupancy)
1 | AAGCGCCG | 0.0648
2 | ACTGATAG | 0.0744
3 | TAAACAAA | 0.078
4 | CTACGAGC | 0.0711
5 | AACTCATC | 0.0815
6 | ATGCGGGA | 0.0837
7 | GCGGTACC | 0.0716
8 | CGTCTAGC | 0.0671
9 | AGGCATAG | 0.0784
10 | ACGCGGAA | 0.0749
11 | CAGTGGTC | 0.0694
12 | AGAATTAG | 0.0746
13 | CCAATTAG | 0.0733
14 | AGTATCCA | 0.0751
15 | CCTTTCAC | 0.0737
16 | AAAAAGTT | 0.0686
17 | GACCATCA | 0.0742
18 | AACTTCAT | 0.0769
19 | TACAGGCA | 0.0794
20 | ACATGAGT | 0.09
21 | ACTCCAAC | 0.0732
22 | CCCCATCG | 0.0763
23 | TAGCATCA | 0.0821
24 | GGCTTACA | 0.0708
25 | GCAAGGAA | 0.0739

Row | Sequence | binding signal (normalized occupancy)
26 | CCTGTCGA | 0.0755
27 | ACTTGCTA | 0.0766
28 | ACTGAGGA | 0.0703
29 | GCCGATCC | 0.073
30 | ATCTGCTC | 0.0788
31 | CGGCACAA | 0.0773
32 | GTTCTCTA | 0.0731
33 | ACTTGTCC | 0.0745
34 | AAAGTACT | 0.07
35 | TCCGAACA | 0.0723
36 | AGTTGCGA | 0.0747
37 | GACTTCTA | 0.0709
38 | CGAAGACA | 0.0716
39 | ACCGCGGA | 0.0699
40 | AACAGGTG | 0.102
41 | ATCCTAGA | 0.0777
42 | AGCTGGTC | 0.066
43 | CCTTGGGC | 0.0653
44 | ACTATCTG | 0.0778
45 | CGACAGCC | 0.0758
46 | CACGTCCG | 0.0797
47 | CTGTAATC | 0.0775
48 | GGCATAGA | 0.0757
49 | GTGGACCA | 0.0775
50 | CTTCCGAA | 0.0715

Row | Sequence | binding signal (normalized occupancy)
51 | GTCGTACA | 0.0761
52 | CACTTCCG | 0.0703
53 | AATGACAA | 0.0791
54 | CCTTTAAC | 0.0699
55 | AGAGTCTC | 0.0681
56 | AACTGGCT | 0.0689
57 | AGTCTGTG | 0.0705
58 | AGGTTGGG | 0.0722
59 | AGATATAT | 0.0885
60 | CTAGGCAG | 0.0705
61 | GCATAGTA | 0.0788
62 | GCGGGACA | 0.0728
63 | AACGACCT | 0.0734
64 | AGTGTTGA | 0.0724
65 | CGTCATGC | 0.0901
66 | AACACGTG | 0.706
67 | GCTCCACA | 0.0778
68 | AATGGAGC | 0.0753
69 | ACCTACAA | 0.0732
70 | CTAGCTGC | 0.0705
71 | AACGACCG | 0.0713
72 | CATTTTTA | 0.0776
73 | AGGGAGAG | 0.0771
74 | ATATGCGA | 0.0834
75 | CACGCAGG | 0.0845

Row | Sequence | binding signal (normalized occupancy)
76 | AAGACCCG | 0.0707
77 | AATTTATA | 0.0795
78 | GACTGCCC | 0.0688
79 | CTATTTCA | 0.0817
80 | AACCTTGC | 0.0728
81 | GCAGATCC | 0.0742
82 | GTTTTATA | 0.0785
83 | CGCTGCGA | 0.0718
84 | ATGTATGC | 0.0851
85 | CGAACTGA | 0.07
86 | AGCTCACT | 0.0712
87 | ACTGGCTC | 0.0665
88 | AAGGCTCG | 0.0689
89 | AGTCTTGC | 0.0751
90 | ACTTCCTA | 0.0759
91 | CAGGCAGA | 0.072
92 | AGTTTATG | 0.0741
93 | AAGGAGCG | 0.0653
94 | GTTAGCCA | 0.0713
95 | CTTCTCTA | 0.0722
96 | AAACGGTA | 0.0728
97 | ATGGCGTG | 0.0949
98 | AGATTTCA | 0.0771
99 | AGACGACA | 0.0751
100 | CAGGAGGC | 0.0691

Row | Sequence | binding signal (normalized occupancy)
101 | CTAGAACC | 0.0725
102 | GCTGCCAA | 0.0702
103 | AGTTTCAG | 0.0706
104 | ACAACTAT | 0.0777
105 | AGTCTCGG | 0.069
106 | ACAGTATG | 0.0832
107 | AAGGGGGC | 0.0846
108 | ACAATTAT | 0.0791
109 | ATGTGAGG | 0.0857
110 | GTATCTAA | 0.0851
111 | ATCAGTTC | 0.074
112 | AGTTTTTA | 0.0727
113 | CCTGGCAG | 0.0749
114 | GATTTGGA | 0.0764
115 | CCTTACAA | 0.076
116 | AGCTGGTA | 0.0693
117 | CGCTGGCA | 0.0704
118 | ACTGGACG | 0.0706
119 | CCACCGAA | 0.0733
120 | GCGGGAGA | 0.0717
121 | TACTCTGA | 0.0744
122 | TCACGGCA | 0.0772
123 | ACAATCAA | 0.0715
124 | AGGAGTCG | 0.0717
125 | AACTGTAC | 0.0732

Row | Sequence | binding signal (normalized occupancy)
126 | TATCACAA | 0.0816
127 | TACCCCGA | 0.0798
128 | CGCTCGCC | 0.068
129 | ATAACTTC | 0.0741
130 | GGTTATTA | 0.0851
131 | AACGGCTT | 0.0645
132 | GCAGTGAA | 0.0712
133 | CAAGCCCC | 0.0757
134 | ACTTCACC | 0.0731
135 | CATTACGG | 0.0774
136 | AATATAGC | 0.0773
137 | AGTCCATG | 0.0832
138 | CCGACGAG | 0.0722
139 | GAACAAGC | 0.0732
140 | CGATGTTC | 0.0738
141 | GCAGCTAC | 0.0676
142 | AGGTGCGC | 0.0791
143 | CCGACTAG | 0.066
144 | AGCCCTCG | 0.0704
145 | CATCGTAG | 0.0759
146 | CGCATTCA | 0.0752
147 | AAAAGGTC | 0.0695
148 | ACAGGCGG | 0.0721
149 | ATCCAATC | 0.0772
150 | ACTTTGCA | 0.0659

Row | Sequence | binding signal (normalized occupancy)
151 | ATCGACTC | 0.0757
152 | AGCGAACT | 0.0724
153 | TGACGAAA | 0.0758
154 | AGTTTATA | 0.0789
155 | ATCTTCGG | 0.0708
156 | TCATTCAA | 0.0767
157 | TACCAGGA | 0.0658
158 | CCGAGATC | 0.0743
159 | GACCGTCC | 0.0646
160 | TGGACGAA | 0.0798
161 | GAAGCGTA | 0.0738
162 | CATTGCGC | 0.0734
163 | CGAGCGGA | 0.0706
164 | AGAAACCC | 0.0744
165 | ATGACATA | 0.0825
166 | ATAACGAT | 0.086
167 | GGCTTGAC | 0.0653
168 | TGAACCCA | 0.0723
169 | GACCTCGC | 0.0775
170 | ATTAGTCC | 0.0724
171 | ACGCAAAA | 0.0723
172 | AAGCGAGC | 0.0682
